US20200392251A1 (University of California, published 2020)

Legend:
[1] = molecular target: T1, N-terminal domain of tissue inhibitor of metalloproteinases 1 (nTIMP-1) (UniProt P01033 24-149, limits assumed); assay: BLItz bio-layer interferometry; printed as 'Affinity ... (nM)'
T1 construct: domain: N-terminal domain; Periplasmically expressed and purified as reported elsewhere

[2] = molecular target: T2, N-terminal domain of tissue inhibitor of metalloproteinases 2 (nTIMP-2) (UniProt P16035 27-153, limits assumed); assay: as above
T2 construct: domain: N-terminal domain; Periplasmically expressed and purified as reported elsewhere

- Kd [1]: 500 nM
- Kd [2]: 290 nM
B1: human MMP-12 catalytic domain mutant D4 (cdMMP-12 D4) (enzyme)
chain: GPVWRKHDITYRIQNYTPDMHREDVDKAIEKAFQVWSNVTPLKFSKINTGEADILIVFARGEHGDFHPFDGKGGILAHAFGPGSGIGGDAHFDEDEFWTTSSGGTNLFLVAVHEIGHSLGLGHSSDPRAVMFPTYKYVDTNTFRLSQDDIRGIQSLYGHHHHHH
notes: PROSS-designed expression-optimised mutant; Cytoplasmically expressed in E. coli, purified on Ni-NTA; biotinylated for ELISA/BLI; also called cdMMP-12 mutant D4; modified D4
